The chains are these.
B1: chr2:202488911:202488912:-_ENSG00000155755_ENST00000286196|hu_mus|hu_hu_hu_mus_False|58_88 (ssRNA)
RNA: GGGAGUUCUACAGUCCGACGAUCAUUGAAACAUUUUUCAUAAUCUCAGAGAUGUUUUCAGCAUUAUGUAACAAAAGAUCUAUUACAAAUACAUGUAUCUUAUAAAAAUACACUUAAAAACACGAGUGGGGAGCGCAGGCGCCACAACAGAGGAUUGAGCAUCA
B2: chr5:40767622:40767623:-_ENSG00000132356_ENST00000397128|hu_mus|hu_hu_hu_mus_False|28_58 (ssRNA)
RNA: GGGAGUUCUACAGUCCGACGAUCAUCUUUUAUUGCGGCCCUCUUCAUGGGAUCCACCUGCAGCAUAUGUUUCAAAAGGCUAAUCACUGAAGGGUUUAAGUACUGAGGGGUAUAGAAGAUCCCAUCACAUAUCUUCUUAAAAAGCAACAGAGGAUUGAGCAUCA
B3: chr22:46125322:46125323:+_ENSG00000130638_ENST00000252934|hu_hu|FALSE|FALSE (ssRNA)
RNA: GGGAGUUCUACAGUCCGACGAUCAAACACAGGGAUGUCAUCCUUGGUGAGUGGCUCAUCACUCGUUAUCUUGGCUAUCAUAAGGUCUAACAGUGUAACUCUUUCUUGAUUGUUCAGUUUGGGAAACAUGGCUUGUACCAAUUCCAACAGAGGAUUGAGCAUCA
B4: chr3:10015032:10015033:+_ENSMUSG00000027533_ENSMUST00000029046|mus_mus|mus_mus_mus_hu_True|8_18 (ssRNA)
RNA: GGGAGUUCUACAGUCCGACGAUCGUUUUUACCAUCACAAGUGAUGAUACAAUCUGGCUUGGCCAUUGCGCCCAUUUUUCGCAAAGCUAUUCCCACUCCUAGCUCCUUCAUGUAUUCCUCAAAGCCGUGGCUUUCCACCAGGCGCAACAGAGGAUUGAGCAUCA
B5: chr3:7442581:7442582:+_ENSMUSG00000027499_ENSMUST00000028999|mus_hu|motif|central (ssRNA)
RNA: GGGAGUUCUACAGUCCGACGAUCUAUUGUACAAUACAAAACAGUGUAAAUAACACAGCAGUAACACACAGAUACGUAAUGCGGAAAACAGUGCUUUCUGGAUCUUUCUUUUACUGGGUGAACACUUGAGCCAGAGAUAUUUAACAACAGAGGAUUGAGCAUCA
B6: chr13:41657021:41657022:+_ENSG00000120688_ENST00000379487|hu_mus|FALSE|FALSE (ssRNA)
RNA: GGGAGUUCUACAGUCCGACGAUCCACAGAGCACAGAGCAGCUUGGAAAGGACACCCCUUCCAUCCAUAGCUUCACAGUCACUCGUCGUCACCUCGCUGUCUUAAGUUUCGAGAUUUUCCAUUUUCAAGUCUUCUCUUUUUGAACAACAGAGGAUUGAGCAUCA
B7: chr12:48362563:48362564:+_ENSG00000134291_ENST00000256686|hu_hu|hu_hu_hu_mus_False|28_98 (ssRNA)
RNA: GGGAGUUCUACAGUCCGACGAUCUCCGUCAAGCCCUUCAAGCCCCACUUGCGGGGGAAACUGUAAUCACUUUGUAUGGGGAAGGAAAAGAAACGCCAAAAACUUUCUUUCUUUCUUGGGUGGGGUGAGGCGGGAGGGGGAGGUCAACAGAGGAUUGAGCAUCA
B8: chr3:121486967:121486968:-_ENSMUSG00000028127_ENSMUST00000029770|mus_hu|FALSE|FALSE (ssRNA)
RNA: GGGAGUUCUACAGUCCGACGAUCUCCAAUUGCACUCGUUAACUUAAAGAUAUACAAAACUAUGUCUAAAAAUGGCUUACUAAGAUUUGAAUACAGAUCGACUACACUGUUACAAAAUUUUUCUACAUCUUGUGUAAGCAGCUGCAACAGAGGAUUGAGCAUCA
B9: 152509328_152509448_733_3pUTR_ENSMUSG00000039037_ENSMUST00000044278|mouse|control|control (ssRNA)
RNA: GGGAGUUCUACAGUCCGACGAUCUAGGUUGUUGUACGCCUGGCCCUUGCCAUCCCGGCGCAUGUAGCUGCUGGGGCCCCAGAAGAUGAACACGGUGCCCUGGCUCACAUUGAGCAGGUCAUGGCGGUUGCGGAGGAUCCUCUGCAACAGAGGAUUGAGCAUCA
B10: chrX:69798090:69798091:-_ENSMUSG00000031343_ENSMUST00000055966|mus_mus|motif|central (ssRNA)
RNA: GGGAGUUCUACAGUCCGACGAUCAAGUCCCCAGGUUCUUGUCGUCUUGAUUCCCCUUGGCUAGUGGUUCCAGGGAGAAUACGGAUCAGGAGAAGAAGUACAACUCUGGUCACAUAAAAGUGCCACAUUUGUGUGAUUAUCAUCCAACAGAGGAUUGAGCAUCA
B11: chr2:5814250:5814251:-_ENSMUSG00000025816_ENSMUST00000102981|mus_hu|mus_mus_mus_hu_True|38_58 (ssRNA)
RNA: GGGAGUUCUACAGUCCGACGAUCUUCCUUUCCGGUUUCUGAAUUUCUGGUAGAACUGCACAGAAUGGUUUGAUAACUUCUAAAAACUUGAUGCCCAUGGCGGCGGCUGGGGAGGCCCAGGGGGAAACCGCGGCCUCGGCGCUGCAACAGAGGAUUGAGCAUCA
B12: 23766683_23767305_2165_CDS_ENSMUSG00000020273_ENSMUST00000020513|mouse|control|control (ssRNA)
RNA: GGGAGUUCUACAGUCCGACGAUCAAGUCGAAUGAACUUUUCUAUGUCUUUCAGCCUCUUAGAAGUCCCAUCUGUAGGUGGCGAAUGGGAUCUUUUGGGUGUAACAUUCUUAGUAAUAUUUGAUAUCCCAUUUAGAUGUGGUUGCAACAGAGGAUUGAGCAUCA
B13: chrX:45560084:45560085:-_ENSMUSG00000036985_ENSMUST00000037960|mus_mus|motif|central (ssRNA)
RNA: GGGAGUUCUACAGUCCGACGAUCGGGACUACUCGAGAGAAGAUGCAGAGGCUGAGGUCAGCUUUAAAAUCAGGUCGUCGGCGGGUGUUGCCACUGGGUCAAACAUUAUCAAGAGCCCUGAACAAGGGACACUGAACUCGGCCGCAACAGAGGAUUGAGCAUCA
B14: chr2:202488911:202488912:-_ENSG00000155755_ENST00000286196|hu_mus|hu_hu_hu_mus_False|8_68 (ssRNA)
RNA: GGGAGUUCUACAGUCCGACGAUCAUUGAAACAUUUUUCAUAAUCUCCAGUAGCAUUUCAGCAUUAUUAAUCAAAAACUCAAUUGUAAAUACAUGUAUCUUAUAAAAAUACACUUAAAAACACGAGUAAAAAUGGGAGGCGCCACAACAGAGGAUUGAGCAUCA
B15: chr1:154963231:154963232:+_ENSMUSG00000042751_ENSMUST00000043313|mus_mus|FALSE|FALSE (ssRNA)
RNA: GGGAGUUCUACAGUCCGACGAUCGGCUCUGCCUUCUUUCCUGGAUGUGGCCCUCCGCACUUACGAGUGCUGAGACUGGCUAUAGUGUCCUAUCAGAAGGGAAGUAAACCACAGGAGAGCAUCAAGACUACAAACAAACAAACACAACAGAGGAUUGAGCAUCA
B16: 31412669_31414811_1497_CDS_ENSMUSG00000039100_ENSMUST00000090227|mouse|control|control (ssRNA)
RNA: GGGAGUUCUACAGUCCGACGAUCUCGAAGUACCUCUCUCAGUAACAGGAUGAAGGAGGCAAAGUAGAACACAUACACCAUUCCCACCAACCAGUGCAGAAACAUCGUGGUCCCUGGAGCUGACUGAAAGCUCAGCUCUCGAUCCAACAGAGGAUUGAGCAUCA
B17: 39650104_39650224_1318_3pUTR_ENSG00000100941_ENST00000216832|human|control|control (ssRNA)
RNA: GGGAGUUCUACAGUCCGACGAUCUUUAUCUGGCUCAAUUUCAAAUUCCAUUUCUGGUUCCAAUUCUUUGCUAGCUUCAUUUUCUGAAGGUUCUACACUUUCAACUCGAUUAGUUUCCAUUACCUCCUGGUCAGCAAUUACAUGCAACAGAGGAUUGAGCAUCA
B18: chr10:79632565:79632566:+_ENSMUSG00000045193_ENSMUST00000105365|mus_mus|FALSE|FALSE (ssRNA)
RNA: GGGAGUUCUACAGUCCGACGAUCGCGCCUGCUCGUUGGUGUCGAAGCUGAGUCCUCCCACGAAAAGCUUGCCUUCAUCUGAUGCCAUGGCAGCCGCUGAGUCGGGCAGGUCCCUGACGCGAGCGGGAAGACAGCGCGCCACACCAACAGAGGAUUGAGCAUCA
B19: chr12:39763582:39763583:-_ENSG00000139116_ENST00000544797|hu_mus|hu_hu_hu_mus_False|78_88 (ssRNA)
RNA: GGGAGUUCUACAGUCCGACGAUCCUCUAGGAACUGGGCAUUCACUUUAAAAUCUGGAGCAGGAAGCCCGUUUUUAAUCGCUGAGGUCUUUUUCUCAUCAAUACUCUUGAACAGGUGUCUAACAGCACGAGAGAUGAUGCCCUGCAACAGAGGAUUGAGCAUCA
B20: chr1:39494447:39494448:+_ENSG00000168653_ENST00000372967|hu_mus|hu_hu_hu_mus_False|58_108 (ssRNA)
RNA: GGGAGUUCUACAGUCCGACGAUCGCAUCGACCAGCCUUCUUAUAGGGCUGUUCUGCGCUUAGGAACAUAAAGUGCCGAUCUAUGUUGAUGCCCAGCUUUUUCUGUAUGUCAAGGAAAGGCAUGGCUCUGCAGUGCCCUUGUCACAACAGAGGAUUGAGCAUCA
B21: 121491449_121500598_1676_CDS_ENSG00000173226_ENST00000310864|human|control|control (ssRNA)
RNA: GGGAGUUCUACAGUCCGACGAUCUCUGUGCUGCUGGGCUCGCUCUUCUAGGGCCCUGCCCAUAAAGUAGUGUUGCAGUCGUUCUUGAGCUUGGGCAUGGAGCUCCCUACUGACCACAUCUGACAUUGGAGAGCCCAAAUGUCUCAACAGAGGAUUGAGCAUCA
B22: chr12:45383693:45383694:+_ENSMUSG00000036257_ENSMUST00000043082|mus_mus|FALSE|FALSE (ssRNA)
RNA: GGGAGUUCUACAGUCCGACGAUCACACAAAAUGCAAUUGUUUGCUUCUCUGUUUCCCACAAAGACUUCUUGCAUUAUUAAGGAAGUAAAUAUAUAUAUCUAGAGUCAAAUUAAUAGACAUAACUUAAAAAUCAUUUAUUUUCUCAACAGAGGAUUGAGCAUCA

This is one part of the list.

This test concerns the target T1, UNK ZnF1-3 (human, UniProt Q9C0B0 31-174).
T1 sequence: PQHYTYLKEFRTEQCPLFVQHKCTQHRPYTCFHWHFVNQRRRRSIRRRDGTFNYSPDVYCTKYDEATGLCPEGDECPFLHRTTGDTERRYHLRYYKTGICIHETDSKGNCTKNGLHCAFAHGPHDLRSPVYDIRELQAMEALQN
Description: nsRBNS (natural sequence RNA bind-n-seq); RBNS binding buffer (assumed for nsRBNS): 25 mM Tris pH 7.5, 150 mM KCl, 3 mM MgCl2, 0.01% Triton X-100, 500 ug/ml BSA, 20 U/ml SUPERase-In, 4 C; UNK is unkempt and MSI1 is Musashi-1; names of the RNAs are library labels; protein concentration not given here; high values mean tight binding.
Molecule B1 had a binding signal of 0.7 enrichment R. The figure for B2 is 1.35 enrichment R.

Molecule B3 yielded a binding signal of 0.76 enrichment R. The figure for B4 is 0.64 enrichment R; for B5 it is 0.744 enrichment R; for B6 it is 1.11 enrichment R.

In turn, B7 showed a binding signal of 1.73 enrichment R.

In turn, B8 came in with a binding signal of 0.725 enrichment R.

As to B9, the binding signal turned out to be 0.82 enrichment R. The figure for B10 is 0.834 enrichment R. For B11 the value was 0.975 enrichment R; for B12, 0.52 enrichment R; for B13, 2.63 enrichment R.

Molecule B14 showed a binding signal of 0.816 enrichment R. For B15 the value was 0.966 enrichment R; for B16, 1.2 enrichment R. For B17 the value was 0.472 enrichment R. In turn, B18 registered a binding signal of 0.692 enrichment R. For B19 the value was 1.24 enrichment R; for B20, 0.858 enrichment R; for B21, 0.46 enrichment R.

B22 registered a binding signal of 2.23 enrichment R.

These data come from publication PMC12136788.
